Measured values as given in patent US20250066451A1 (SWEDISH ORPHAN BIOVITRUM AB PUBL, published 2025).

T1: Human IL-1R-I-Fc (Creative BioMart cat. no. IL1RI-771H) (human, UniProt P14778 18-332, limits assumed)
T1 construct: Bought Fc fusion; also called hIL-1R-I-Fc; hIL-1RI-Fc; not shown: Fc part of the bought fusion
T1 sequence (looked up): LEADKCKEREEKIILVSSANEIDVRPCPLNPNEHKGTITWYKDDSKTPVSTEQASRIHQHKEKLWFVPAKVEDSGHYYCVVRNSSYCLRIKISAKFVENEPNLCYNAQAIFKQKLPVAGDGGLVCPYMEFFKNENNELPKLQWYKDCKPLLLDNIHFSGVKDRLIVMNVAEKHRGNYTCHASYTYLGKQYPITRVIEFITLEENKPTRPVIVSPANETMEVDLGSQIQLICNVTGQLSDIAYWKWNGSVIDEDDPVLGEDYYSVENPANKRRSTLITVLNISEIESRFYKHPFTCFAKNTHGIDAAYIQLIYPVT


Target: T1, Human IL-1R-I-Fc (Creative BioMart cat. …)
Assay: ELISA, captured Z-ABD, hIL-1R-I-Fc titrated

Binder | EC50
Z18836 (designed binder, Z-ABD001 fusion in periplasmic extract; also called Z-ABD) AQHDEALEVDAKYAKEVEAIQMEIFGLPNLTRRQYTAFIRKLLDDPSQSSELLSEAKKLNDSQAPKVDYVLAEAKVLANRELDKYGVSDYYKNLINNAKTVEGVKALIDEILAALPYVPG | 0.23 nM
Z18843 (designed binder, Z-ABD001 fusion in periplasmic extract; also called Z-ABD) AQHDEALEVDAKYAKEIEEIQMEIFYLPNLTRRQYTAFIRKLLDDPSQSSELLSEAKKLNDSQAPKVDYVLAEAKVLANRELDKYGVSDYYKNLINNAKTVEGVKALIDEILAALPYVPG | 0.28 nM
Z18846 (designed binder, Z-ABD001 fusion in periplasmic extract; also called Z-ABD) AQHDEALEVDAKYAKEIEEIQMEIFHLPNLTRRQYTAFIRKLLDDPSQSSELLSEAKKLNDSQAPKVDYVLAEAKVLANRELDKYGVSDYYKNLINNAKTVEGVKALIDEILAALPYVPG | 0.19 nM
Z18866 (designed binder, Z-ABD001 fusion in periplasmic extract; also called Z-ABD) AQHDEALEVDAKYAKEIEEIQMEIFHLPNLTRKQYTAFIRKLLDDPSQSSELLSEAKKLNDSQAPKVDYVLAEAKVLANRELDKYGVSDYYKNLINNAKTVEGVKALIDEILAALPYVPG | 0.31 nM
Z18874 (designed binder, Z-ABD001 fusion in periplasmic extract; also called Z-ABD) AQHDEALEVDAKYAKELEAIQMEIFHLPNLTRRQYTAFIRKLLDDPSQSSELLSEAKKLNDSQAPKVDYVLAEAKVLANRELDKYGVSDYYKNLINNAKTVEGVKALIDEILAALPYVPG | 0.22 nM
Z18878 (designed binder, Z-ABD001 fusion in periplasmic extract; also called Z-ABD) AQHDEALEVDAKYAKEVEEVQMEIFYLPNLTRKQYTAFIRKLLDDPSQSSELLSEAKKLNDSQAPKVDYVLAEAKVLANRELDKYGVSDYYKNLINNAKTVEGVKALIDEILAALPYVPG | 0.37 nM
Z18879 (designed binder, Z-ABD001 fusion in periplasmic extract; also called Z-ABD) AQHDEALEVDAKYAKEVEYIQMEIFRLPNLTRRQYTAFIRKLLDDPSQSSELLSEAKKLNDSQAPKVDYVLAEAKVLANRELDKYGVSDYYKNLINNAKTVEGVKALIDEILAALPYVPG | 0.34 nM
Z18881 (designed binder, Z-ABD001 fusion in periplasmic extract; also called Z-ABD) AQHDEALEVDAKYAKEIEEIQMEIFGLPNLTRRQYTAFIRKLFDDPSQSSELLSEAKKLNDSQAPKVDYVLAEAKVLANRELDKYGVSDYYKNLINNAKTVEGVKALIDEILAALPYVPG | 0.28 nM
Z18884 (designed binder, Z-ABD001 fusion in periplasmic extract; also called Z-ABD) AQHDEALEVDAKYAKEVEIIQMEIFGLPNLTRRQYTAFIRKLLDDPSQSSELLSEAKKLNDSQAPKVDYVLAEAKVLANRELDKYGVSDYYKNLINNAKTVEGVKALIDEILAALPYVPG | 0.23 nM
Z18887 (designed binder, Z-ABD001 fusion in periplasmic extract; also called Z-ABD) AQHDEALEVDAKYAKEVEVIQMEIFRLPNLTRRQYTAFIRKLLDDPSQSSELLSEAKKLNDSQAPKVDYVLAEAKVLANRELDKYGVSDYYKNLINNAKTVEGVKALIDEILAALPYVPG | 0.21 nM
Z18889 (designed binder, Z-ABD001 fusion in periplasmic extract; also called Z-ABD) AQHDEALEVDAKYAKEVEEVQMEIFRLPNLTRRQYTAFIRKLLDDPSQSSELLSEAKKLNDSQAPKVDYVLAEAKVLANRELDKYGVSDYYKNLINNAKTVEGVKALIDEILAALPYVPG | 0.24 nM
Z18890 (designed binder, Z-ABD001 fusion in periplasmic extract; also called Z-ABD) AQHDEALEVDAKYAKELEKVQMEIFGLPNLTRRQYTAFIRKLLDDPSQSSELLSEAKKLNDSQAPKVDYVLAEAKVLANRELDKYGVSDYYKNLINNAKTVEGVKALIDEILAALPYVPG | 0.25 nM
Z18908 (designed binder, Z-ABD001 fusion in periplasmic extract; also called Z-ABD) AQHDEALEVDAKYAKEIEEIQLEIFALPNLTRKQYTAFIRKLLDDPSQSSELLSEAKKLNDSQAPKVDYVLAEAKVLANRELDKYGVSDYYKNLINNAKTVEGVKALIDEILAALPYVPG | 0.24 nM
Z18917 (designed binder, Z-ABD001 fusion in periplasmic extract; also called Z-ABD) AQHDEALEVDAKYAKEIEEIQFEIYDLPNLTRKQYTAFIRKLFDDPSQSSELLSEAKKLNDSQAPKVDYVLAEAKVLANRELDKYGVSDYYKNLINNAKTVEGVKALIDEILAALPYVPG | 0.22 nM
Z18920 (designed binder, Z-ABD001 fusion in periplasmic extract; also called Z-ABD) AQHDEALEVDAKYAKETEEIQMEIFRLPNLTRRQYTAFIRKLLDDPSQSSELLSEAKKLNDSQAPKVDYVLAEAKVLANRELDKYGVSDYYKNLINNAKTVEGVKALIDEILAALPYVPG | 0.24 nM
Z18967 (designed binder, Z-ABD001 fusion in periplasmic extract; also called Z-ABD) AQHDEALEVDAKYAKEIEVVQMEIFHLPNLTRKQYTAFIRKLLDDPSQSSELLSEAKKLNDSQAPKVDYVLAEAKVLANRELDKYGVSDYYKNLINNAKTVEGVKALIDEILAALPYVPG | 0.31 nM
Z18968 (designed binder, Z-ABD001 fusion in periplasmic extract; also called Z-ABD) AQHDEALEVDAKYAKELEEVQLEIFRLPNLTRRQYTAFIIKLLDDPSQSSELLSEAKKLNDSQAPKVDYVLAEAKVLANRELDKYGVSDYYKNLINNAKTVEGVKALIDEILAALPYVPG | 0.2 nM
Z18971 (designed binder, Z-ABD001 fusion in periplasmic extract; also called Z-ABD) AQHDEALEVDAKYAKEIESVQLEIFGLPNLTRRQYTAFIRKLLDDPSQSSELLSEAKKLNDSQAPKVDYVLAEAKVLANRELDKYGVSDYYKNLINNAKTVEGVKALIDEILAALPYVPG | 0.35 nM
Z18982 (designed binder, Z-ABD001 fusion in periplasmic extract; also called Z-ABD) AQHDEALEVDAKYAKEIEEVQLEIFSLPNLTRKQYTAFIRKLLDDPSQSSELLSEAKKLNDSQAPKVDYVLAEAKVLANRELDKYGVSDYYKNLINNAKTVEGVKALIDEILAALPYVPG | 0.25 nM
Z19012 (designed binder, Z-ABD001 fusion in periplasmic extract; also called Z-ABD) AQHDEALEVDAKYAKEVEEVQLEIFALPNLTRKQYTAFIRKLLDDPSQSSELLSEAKKLNDSQAPKVDYVLAEAKVLANRELDKYGVSDYYKNLINNAKTVEGVKALIDEILAALPYVPG | 0.24 nM
Z19053 (designed binder, Z-ABD001 fusion in periplasmic extract; also called Z-ABD) AQHDEALEVDAKYAKEIEDVQLEIFKLPNLTRRQYTAFIRKLLDDPSQSSELLSEAKKLNDSQAPKVDYVLAEAKVLANRELDKYGVSDYYKNLINNAKTVEGVKALIDEILAALPYVPG | 0.24 nM
Z19054 (designed binder, Z-ABD001 fusion in periplasmic extract; also called Z-ABD) AQHDEALEVDAKYAKEIEWVQLEIFHLPNLTRKQYTAFIRKLLDDPSQSSELLSEAKKLNDSQAPKVDYVLAEAKVLANRELDKYGVSDYYKNLINNAKTVEGVKALIDEILAALPYVPG | 0.25 nM

Second part, the binder after the results:

EC50 | Binder
0.15 nM | Z18832 (designed binder, Z-ABD001 fusion in periplasmic extract; also called Z-ABD) AQHDEALEVDAKYAKEVEEIQMEIFHLPNLTRRQYTAFIRKLLDDPSQSSELLSEAKKLNDSQAPKVDYVLAEAKVLANRELDKYGVSDYYKNLINNAKTVEGVKALIDEILAALPYVPG
0.25 nM | Z18834 (designed binder, Z-ABD001 fusion in periplasmic extract; also called Z-ABD) AQHDEALEVDAKYAKEVEEIQMEIFGLPNLTRRQYTAFIRKLLDDPSQSSELLSEAKKLNDSQAPKVDYVLAEAKVLANRELDKYGVSDYYKNLINNAKTVEGVKALIDEILAALPYVPG
0.29 nM | Z18875 (designed binder, Z-ABD001 fusion in periplasmic extract; also called Z-ABD) AQHDEALEVDAKYAKEIEAIQMEIFHLPNLTRRQYTAFIRKLLDDPSQSSELLSEAKKLNDSQAPKVDYVLAEAKVLANRELDKYGVSDYYKNLINNAKTVEGVKALIDEILAALPYVPG
0.35 nM | Z18877 (designed binder, Z-ABD001 fusion in periplasmic extract; also called Z-ABD) AQHDEALEVDAKYAKEVEEIQMEIFYLPNLTRKQYTAFIRKLLDDPSQSSELLSEAKKLNDSQAPKVDYVLAEAKVLANRELDKYGVSDYYKNLINNAKTVEGVKALIDEILAALPYVPG
0.31 nM | Z18882 (designed binder, Z-ABD001 fusion in periplasmic extract; also called Z-ABD) AQHDEALEVDAKYAKEVEEVQMEIFDLPNLTRRQYTAFIRKLLDDPSQSSELLSEAKKLNDSQAPKVDYVLAEAKVLANRELDKYGVSDYYKNLINNAKTVEGVKALIDEILAALPYVPG
0.29 nM | Z18886 (designed binder, Z-ABD001 fusion in periplasmic extract; also called Z-ABD) AQHDEALEVDAKYAKEIEAIQMEIFGLPNLTRKQYTAFIRKLLDDPSQSSELLSEAKKLNDSQAPKVDYVLAEAKVLANRELDKYGVSDYYKNLINNAKTVEGVKALIDEILAALPYVPG
0.23 nM | Z18888 (designed binder, Z-ABD001 fusion in periplasmic extract; also called Z-ABD) AQHDEALEVDAKYAKEVEAIQMEIFHLPNLTRKQYTAFIRKLLDDPSQSSELLSEAKKLNDSQAPKVDYVLAEAKVLANRELDKYGVSDYYKNLINNAKTVEGVKALIDEILAALPYVPG
0.38 nM | Z18904 (designed binder, Z-ABD001 fusion in periplasmic extract; also called Z-ABD) AQHDEALEVDAKYAKEVEEIQLEIFALPNLTRKQYTAFIRKLLDDPSQSSELLSEAKKLNDSQAPKVDYVLAEAKVLANRELDKYGVSDYYKNLINNAKTVEGVKALIDEILAALPYVPG
0.14 nM | Z18912 (designed binder, Z-ABD001 fusion in periplasmic extract; also called Z-ABD) AQHDEALEVDAKYAKETEEIQMEIFHLPNLTRKQYTAFIRKLLDDPSQSSELLSEAKKLNDSQAPKVDYVLAEAKVLANRELDKYGVSDYYKNLINNAKTVEGVKALIDEILAALPYVPG
0.25 nM | Z18966 (designed binder, Z-ABD001 fusion in periplasmic extract; also called Z-ABD) AQHDEALEVDAKYAKETEEVQMEIFRLPNLTRKQYTAFIRKLLDDPSQSSELLSEAKKLNDSQAPKVDYVLAEAKVLANRELDKYGVSDYYKNLINNAKTVEGVKALIDEILAALPYVPG
